Data reported in PubChem BioAssay AID504333 (National Center for Advancing Translational Sciences (NCATS), 2011).
About 16,000 (4.4%) of roughly 360,000 compounds were called active. The shares of active, inactive and inconclusive entries below differ from those in the screen. Calls come from the whole dose curve; as a rule, active = well fitted inhibition curve with a large enough effect; inconclusive = small, poorly fitted or top-dose-only effect; inactive = no such curve, though single readings can be large or run the other way. Potencies of inconclusive entries are doubtful fits and often do not repeat.

Each molecule was assayed against Bromodomain adjacent to zinc finger domain protein 2B (Homo sapiens) (UniProt Q9UIF8) (assay: qHTS Assay for Inhibitors of BAZ2B). Settings: AlphaScreen BAZ2B-H3K14Ac peptide displacement; activity change, negative = inhibition: at 114 µM (top of the series).
In short: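 BAZ2B (50 nM) with biotin-H3(5-23)K14Ac peptide (50 nM) in PBS pH 7.4, 0.01% Tween-20, preformed 30 min, then compound 30 min at room temperature; top concentration 110uM. AlphaScreen streptavidin donor/nickel chelate acceptor beads (10 ug/mL final), 20 min dark, signal read.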
% is set by controls: 0 for no effect and ±100 for the full control effect; potency is the fitted concentration of half-maximal effect; tags give direction and shape of the fitted curve.
Note: nearly all actives have a fitted effect of over 60% in size.

Sequence of UniProt Q9UIF8 (Q9UIF8 whole entry, looked up, the tested form may be a part): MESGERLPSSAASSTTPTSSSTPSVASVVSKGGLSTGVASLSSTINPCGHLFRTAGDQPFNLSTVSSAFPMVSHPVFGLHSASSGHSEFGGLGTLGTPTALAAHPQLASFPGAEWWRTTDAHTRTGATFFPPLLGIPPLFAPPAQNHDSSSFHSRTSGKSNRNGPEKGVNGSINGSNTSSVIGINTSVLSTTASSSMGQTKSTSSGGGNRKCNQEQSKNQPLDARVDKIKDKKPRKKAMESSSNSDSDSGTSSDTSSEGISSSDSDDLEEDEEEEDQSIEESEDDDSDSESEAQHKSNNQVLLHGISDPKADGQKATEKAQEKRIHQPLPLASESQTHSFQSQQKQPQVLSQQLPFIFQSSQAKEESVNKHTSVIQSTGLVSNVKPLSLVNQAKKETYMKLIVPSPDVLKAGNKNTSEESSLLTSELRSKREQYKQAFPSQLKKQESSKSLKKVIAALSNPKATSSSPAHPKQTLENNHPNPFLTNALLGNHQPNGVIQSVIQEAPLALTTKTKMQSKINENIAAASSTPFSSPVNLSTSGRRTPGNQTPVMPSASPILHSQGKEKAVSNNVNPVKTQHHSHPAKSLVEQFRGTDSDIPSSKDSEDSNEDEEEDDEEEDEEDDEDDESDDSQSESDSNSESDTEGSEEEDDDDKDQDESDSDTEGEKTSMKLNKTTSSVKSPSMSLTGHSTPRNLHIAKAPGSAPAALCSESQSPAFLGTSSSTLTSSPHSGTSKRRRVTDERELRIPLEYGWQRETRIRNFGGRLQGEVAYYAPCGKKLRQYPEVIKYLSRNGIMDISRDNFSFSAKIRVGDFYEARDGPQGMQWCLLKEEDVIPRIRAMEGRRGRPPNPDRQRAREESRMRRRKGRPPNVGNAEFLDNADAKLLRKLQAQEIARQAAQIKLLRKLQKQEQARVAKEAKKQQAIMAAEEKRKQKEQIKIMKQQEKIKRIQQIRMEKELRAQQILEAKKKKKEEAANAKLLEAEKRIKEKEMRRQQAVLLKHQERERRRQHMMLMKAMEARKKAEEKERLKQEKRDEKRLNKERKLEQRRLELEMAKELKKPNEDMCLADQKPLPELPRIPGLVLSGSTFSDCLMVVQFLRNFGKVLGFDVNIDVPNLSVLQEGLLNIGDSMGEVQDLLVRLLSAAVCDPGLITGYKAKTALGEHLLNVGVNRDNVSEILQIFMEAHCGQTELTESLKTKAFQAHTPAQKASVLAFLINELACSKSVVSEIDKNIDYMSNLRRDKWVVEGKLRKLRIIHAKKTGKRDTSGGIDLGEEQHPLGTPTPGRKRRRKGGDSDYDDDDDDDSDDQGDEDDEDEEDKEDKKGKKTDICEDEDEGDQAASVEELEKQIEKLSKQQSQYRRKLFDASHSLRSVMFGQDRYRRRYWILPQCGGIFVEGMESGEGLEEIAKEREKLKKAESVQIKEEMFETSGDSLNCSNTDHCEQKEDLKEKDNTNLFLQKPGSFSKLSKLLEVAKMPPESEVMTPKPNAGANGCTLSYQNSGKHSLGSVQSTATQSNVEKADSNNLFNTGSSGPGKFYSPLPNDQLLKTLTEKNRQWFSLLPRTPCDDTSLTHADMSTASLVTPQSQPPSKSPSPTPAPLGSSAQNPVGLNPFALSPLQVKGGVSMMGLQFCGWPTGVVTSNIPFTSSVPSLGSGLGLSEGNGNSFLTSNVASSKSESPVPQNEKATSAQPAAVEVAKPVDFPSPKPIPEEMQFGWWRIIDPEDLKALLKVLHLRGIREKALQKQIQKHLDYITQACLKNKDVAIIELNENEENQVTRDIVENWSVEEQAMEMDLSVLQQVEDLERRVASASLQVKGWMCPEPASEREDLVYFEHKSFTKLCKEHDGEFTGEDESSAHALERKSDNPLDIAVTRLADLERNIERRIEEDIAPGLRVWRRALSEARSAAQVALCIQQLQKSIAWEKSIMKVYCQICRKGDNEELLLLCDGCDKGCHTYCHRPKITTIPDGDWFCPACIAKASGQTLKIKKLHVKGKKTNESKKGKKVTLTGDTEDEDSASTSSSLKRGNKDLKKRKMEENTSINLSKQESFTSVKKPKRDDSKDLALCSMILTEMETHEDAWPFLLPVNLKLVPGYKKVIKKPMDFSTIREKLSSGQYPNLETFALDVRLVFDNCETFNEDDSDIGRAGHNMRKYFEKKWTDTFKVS

SMILES	Potency	activity change, negative = inhibition
Cn1c(C(=O)NCc2cccnc2)cc2sc(Cl)cc21	inconclusive: 50.1 µM [inhibitor, partial curve]	–
Cc1cc(C(=O)NNC(=O)CCC2CCCCC2)c(C)o1	inconclusive: 79.4 µM [inhibitor, single point]	–
COC(=O)C1=C(C)NC(=S)NC1c1ccc(-c2cccc(Cl)c2)o1 (stereo not given)	inconclusive: 79.4 µM [inhibitor, single point]	–
CCOC(=O)c1cc(-c2ccccc2)n(-c2cccc(C(=O)Nc3ccc(OC)cc3)c2)c1C	inconclusive: 22.4 µM [inhibitor, full curve]	–
COc1ccc(N2CCN(C(=O)c3cn(CC(C)C)c(=O)c4c3c3ccccc3n4C)CC2)cc1	active: 25.1 µM	–
CCOc1ccc(NC(=S)N(CCOC)C2CCN(C(C)C)CC2)cc1	–	inactive: -2.32%
CCCCSCc1[nH]c(=O)[nH]c1C(=O)CCCCC(=O)OCC	inconclusive: 89.1 µM [inhibitor, single point]	–
COC(=O)c1ccc(Oc2c(Cl)cccc2[N+](=O)[O-])cc1	inconclusive: 70.8 µM [inhibitor, single point]	–
CCOC(=O)c1c(C)[nH]c(C(=O)CN(C)CC(=O)Nc2ccccc2C(F)(F)F)c1C	inconclusive: 89.1 µM [inhibitor, single point]	–
O=c1c2ccccc2nc2sc3ccccc3n12	–	inactive: 2.79%
COc1ccc(-n2c(O)c(/C=N/NS(=O)(=O)c3ccc(C)c([N+](=O)[O-])c3)c3ccccc3c2=O)cc1OC	active: 50.1 µM	–
N=c1n(CCN2CCCCC2)c2ccccc2n1CC(=O)c1ccc(Cl)c(Cl)c1	active: 31.6 µM	–
O=C(O)C1C2C=CC(C2)C1C(=O)NCc1cccs1 (stereo not given)	inconclusive: 79.4 µM [inhibitor, partial curve]	–
Cc1c(-n2c(SCC(N)=O)nc3ccccc3c2=O)c(=O)n(-c2ccccc2)n1C	–	inactive: 2.21%
CSc1ccc(N=Nc2c(C)[nH]n(C)c2=O)cc1	active: 17.8 µM	–
COc1ccc(NC(=O)N2CCN(c3ccc([N+](=O)[O-])cc3)CC2)cc1OC	inconclusive: 50.1 µM [inhibitor, partial curve]	–
O=C(Cn1cc(S(=O)(=O)Cc2cccc(Cl)c2)c2ccccc21)NCCc1ccccc1	–	inactive: -3.96%
Cc1cccc(CN2C(=O)c3ccccc3S(=O)(=O)c3ccc(C(=O)NCCCN4CCCC4)cc32)c1	inconclusive: 89.1 µM [inhibitor, single point]	–
CCOc1ccccc1NC(=O)CCc1ccc(C)o1	inconclusive: 89.1 µM [inhibitor, single point]	–
CCCC(=O)Nc1nc(C)c(-c2csc(Nc3ccc(Cl)cc3)n2)s1	active: 28.2 µM	–
COc1cc(-c2csc(NC3CCCCC3)n2)cc(OC)c1OC	inconclusive: 56.2 µM [inhibitor, partial curve]	–
CCN(CC(=O)Nc1sc2c(c1C#N)CCC(C)C2)CC(=O)NC1CCS(=O)(=O)C1 (stereo not given)	inconclusive: 79.4 µM [inhibitor, single point]	–
CCCCC(CC)CNC(=O)CN1C(=O)CSc2ccc(S(=O)(=O)N3CCOCC3)cc21 (stereo not given)	–	inactive: 3.07%

SMILES	Potency	activity change, negative = inhibition
Cc1cc(C)n(-c2nnc(C)n2/N=C/c2ccc(O)cc2)n1	inconclusive: 79.4 µM [inhibitor, partial curve]	–
CSCCC(NC(=O)c1ccc(Cl)cc1Cl)C(=O)OC(C)C(=O)NCc1ccco1 (stereo not given)	inconclusive: 89.1 µM [inhibitor, single point]	–
O=C(Cc1ccccc1F)Nc1ccccc1N1CCCC1	–	inactive: -12.9%
O=C(Nc1c(Cl)ccc2nsnc12)c1ccc([N+](=O)[O-])o1	–	inactive: 18.1%
O=C(Cc1ccccc1)Nc1nnc(-c2ccco2)o1	active: 28.2 µM	–
COc1cc(OC)cc(C(=O)NCCCn2ccnc2)c1	inconclusive: 89.1 µM [inhibitor, single point]	–
Cc1cc(Nc2cccc(Cl)c2)nc2ccc(NC(=O)c3cccc(N(C)C)c3)cc12	inconclusive: 35.5 µM [inhibitor, partial curve]	–
O=C(Nc1ccccc1)c1ccc2c(O)c(S(=O)(=O)c3ccc(Cl)cc3)c(=O)[nH]c2c1	inconclusive: 79.4 µM [inhibitor, single point]	–
CCOc1ccccc1C(=O)Nc1ccc2nc3c(c(Nc4ccc(OC)c(OC)c4)c2c1)CCCC3	–	inactive: -35.2%
Cc1cc(C)nc(N2CCCC(C(=O)Nc3ccc(F)cc3)C2)n1 (stereo not given)	–	inactive: -0.167%
Cc1ncc(CO)c2c1Oc1nc(-c3ccc(F)cc3)nc(SCc3ccc(F)cc3Cl)c1C2	inconclusive: 79.4 µM [inhibitor, single point]	–
Cc1ccc(C)c2[nH]c(=O)c(CN(Cc3cccnc3)C(=S)NCc3ccco3)cc12	inconclusive: 44.7 µM [inhibitor, partial curve]	–
Cc1ccc(Cc2cnc(N)s2)o1	inconclusive: 70.8 µM [inhibitor, single point]	–
CN1CCN(c2ccc(S(=O)(=O)N3CCCCC3)cc2NC(=O)/C=C/c2ccc(Cl)c([N+](=O)[O-])c2)CC1	inconclusive: 35.5 µM [inhibitor, partial curve]	–
COc1ccc(N2CCN(c3nc4cc(C)ccc4cc3C=O)CC2)cc1	active: 12.6 µM	–
O=C(Nc1ccccc1F)C1CCN(S(=O)(=O)c2cccnc2)CC1	–	inactive: -4.69%
Cc1cccc(N2CCN(c3ccc(NC(=O)c4ccccc4)cc3C(=O)O)CC2C)c1 (stereo not given)	active: 79.4 µM	–
Cc1[nH]c2ccccc2c1C(=O)C(=O)Nc1ccc2c(c1)OCO2	inconclusive: 70.8 µM [inhibitor, single point]	–
N#Cc1ccc(NC(=O)N2CCC(c3nc4c(nnn4Cc4cccc(Cl)c4)c(=O)[nH]3)CC2)cc1	–	inactive: 4.51%
CC/C(=C/c1sc2ccccc2[n+]1CC)SC	inconclusive: 79.4 µM [inhibitor, single point]	–
COc1ccccc1/C=C1\SC(=O)N(CCC(=O)NCCCn2ccnc2)C1=O	inconclusive: 39.8 µM [inhibitor, partial curve]	–
COc1ccc(C(CC(=O)N2CCCC2)c2c(OC)cc(OC)c3c(-c4ccccc4)cc(=O)oc23)cc1 (stereo not given)	active: 56.2 µM	–
